Experimental data taken from the supplement of paper PMC11417369.
Some of the results follow.

tested on: PF3D7_0420300 AP2 domain 1 (GST-tagged); assay: gcPBM binding intensity (ln(normalized median fluorescence intensity)); higher = stronger DNA binding
Outline: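 Probes on an Agilent 4 × 180k array were primer-extended, double-stranded and 36 bp long, taken from intergenic genomic regions, with negative controls added. GST-tagged P. falciparum DNA-binding domains from E. coli, about 25 μg on average, were applied to the array for 1 h in 1× PBS containing 1% milk, 0.2 mg/ml BSA, 0.5% salmon testes DNA and 0.03% Triton X-100. Binding intensity, obtained after Alexa488 anti-GST antibody detection and a 488 nm scan, is the highest Masliner-normalised natural-log median intensity across replicate spots of either probe orientation.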

Point of comparison: “TATATACAAATATGTACACACATTACAGATGTACAT [CACACA_site6586]”, “gcPBM binding intensity (ln)” value 9.44. Against it:
- CCAAACAAAAAAAAAAGTACATAAAACACCTATTTG [XGTACX_site5645] — higher, 9.46
- ATAATTAGGGTGTATTTCATTTCATTTCATTTTATT [CACACA_negctrl_site1418] — higher, 9.66
- AATATATAAATATATACACACAAAAACATATATATA [CACACA_site1318] — higher, 9.8
- TAGAAAAAATAAAATAGTACACATCCAAAAAAAAAA [XGTACX_site7829] — higher, 9.6
- AAAAAAAAAAACAGTTGTACATTTATTTATATATTA [XGTACX_site217] — lower, 9.13
- AAAATAAGGACTGTTGTGCACTGGATTTGTGGTTAC [GTGCAC_site9830] — the same, 9.44
- ATTTTAACGAATATATGTACATAAAAAAAAAAAAGA [XGTACX_site8750] — lower, 9.37
- TAAGTAAAAAATTAAAAAGATTACAGGGGGGGAAGG [XGTACX_negctrl_site491] — higher, 9.96
- GACATAAGATAATTACACATTGTTTCCTCAATAATA [CACACA_negctrl_site1616] — lower, 9.24
- TTTCTTTAATATATAGTGCATGTAAATTTTACAATA [GTGCAC_site9679] — lower, 9.05
- TAATATAATATATAGGTGCAATATTAACAAAAATTT — lower, 9.37
- ATTAATATGAATAAATGTACAAATGAATGATTACAT [XGTACX_site6044] — lower, 9.31
- ATAATGTGTTAGGCGTGTACACAATTGTATGGTTTA [XGTACX_site2377] — higher, 9.45
- AAATAAAATCATAATGTGCGCATATAAATTTGTAGG [GTGCAC_site9662] — higher, 9.45
- ATATATATATATGAAAGTACACATCTATTTTTTCTT [XGTACX_site6059] — lower, 9.28
- AAGGTAGATATATTTAGTACGTAATTTTTTTTTTTT [XGTACX_site7288] — lower, 9.29
- AAAATAAAATTTACTTGTACTAAAGGGATACGCGCA [XGTACX_site1453] — lower, 9.17
- TAAATATTATTTATATGTACTGATATATTAAATAAA [XGTACX_site3446] — lower, 8.8
- AATTAATATTTAAATTGTACATGAACATTTTAATGT [XGTACX_site462] — lower, 8.97
- GTCACAAAATAAATTAAACACACAACATCATATATG [CACACA_site8182] — higher, 9.65
- AATATAAATTTATATTGTACATATTTTATTATATGT [XGTACX_site905] — lower, 9.26
- GTGTATCAATATGTAGGTACGTAAATATAGATAATA [XGTACX_site5526] — lower, 9.38
- TTAAATAAAATTTATTGTACATAAAATTAAATATAG [XGTACX_site3039] — lower, 8.96
- CATAATTTACATAAAAGTACATATATATTAATGACG [XGTACX_site6247] — lower, 9.27
- TTTATTCCCGCATATAGTACATATACCATTTAATGT [XGTACX_site7011] — lower, 9.4
- GTAAAAAAAGAGCACACACACAAAAACACCCACAAA [CACACA_site1292] — higher, 10
- AAACTTGTAAGAAACACACACACACGCATATAAATA [CACACA_site6518] — higher, 10
- ATAAATAAAATATGCACACAAATATAGGAAACAACA [CACACA_site2561] — higher, 9.93
- AATATTTAAGTACTGGTGCGTGTATATAATGATTAA [GTGCAC_site9633] — lower, 9.34
- CATAAATACACTGTAGCGCACACGGCCAAAAAAAAA [CACACA_site8537] — lower, 9.42
- ATATAATATGGTATTACACACTGTTATAAGTATGGC [CACACA_site2094] — higher, 9.52
- AAAAGGGATAAATGTGCGCACATGTTATATATATAT [GTGCAC_site9534] — higher, 9.49
- ACATATCTACACAGTGGTACTTCCATTAATATATAC [XGTACX_site3827] — higher, 9.51
- ATTTATTCAAATGGTTGTACTACAAATAAACATTAT [XGTACX_site3378] — lower, 9.2
- TCATAAATTAAACAAACACACACGTTCTTTTATTTA [CACACA_site713] — higher, 9.52
- AACAATGTTGTACATACACACACACTAATAAAAAAT [CACACA_site8758] — higher, 10
- AATACATACAGACACACACACACATATAAATAAATA [CACACA_site7642] — higher, 10.2
- GCTCATTGAAGTTATACACACCAAATATGTAAATAT [CACACA_site7217] — lower, 9.39
- AGAAGCATACATCAAGCACACACACCCACACCCACA [CACACA_site8014] — higher, 9.99
- TCCTTTTCTTAATTTAAAAAATATAAAAAAAACGAA [CACACA_negctrl_site1821] — lower, 8.75
- ACACGTTTATATAAAAAATTAAAATTTTTCTTATTT [CACACA_negctrl_site1523] — lower, 9.17
- ATAACAAAATAAAACACACACACAAATGTACAGATA [CACACA_site5358] — higher, 10.3
- ATTTTTGTGTTTACACGTACGTGTAAATTATTTTTC [XGTACX_site1869] — higher, 9.46
- TATTCATGTTTAAAAAGTACATATTATGGTAACATT [XGTACX_site4533] — lower, 9.12
- ACATATTAATTATTATGACATACATATCAGTTATTA [TGCATGCA_negctrl_site126] — lower, 9.2
- TATATTATTTTATATTGTACATACCAAATATTATAT [XGTACX_site1693] — lower, 9.24
- CATGTGATAATGATTAGTACATAAACAAAAATATAT [XGTACX_site5866] — higher, 9.53
- AGAAAAATAAACAAATGTACAAATTATTACTATATA [XGTACX_site1087] — the same, 9.44
- TATAATATTAATGACTGTACTCATACGTATATTTAT [XGTACX_site5493] — lower, 9.37
- AATTTTGTTTAGCACACACACATACATACATACATA [CACACA_site5707] — higher, 10.1
- TTTAATTTATATTTTGTGCACATCTTATTATATATA [GTGCAC_site9630] — lower, 9.41
- CCCATTTTGACAAAAAGTACAAGTTCAGGTTTTATA [XGTACX_site1532] — lower, 9.22
- TTTCTCTTCTAAACATGTACAAAAATACATACATAT [XGTACX_site1365] — lower, 9.14
- AAAAATTAAAATATTATAGTTGAAACTTTTATAAAT [TGCATGCA_negctrl_site454] — lower, 8.81
- TATATTTATTCCTGTTGTACTTTATATTATTTTTTT [XGTACX_site1415] — higher, 9.79
- ATATATATATATATATGTACATACATACATAGAACT [XGTACX_site2214] — higher, 9.51
- TCCCATTTATTATGGTGTACAATTAATTAAACATAA [XGTACX_site750] — lower, 8.88
- TTATATAAACACCAACGTACGTTCATTTAACATAAC [XGTACX_site5250] — lower, 9.33
- TATATATATATATATTGTACATATGTGGTATAAATG [XGTACX_site6108] — lower, 9.43
- GCATATCTATTTTCACGTACACAAACATGTATATAT [XGTACX_site3722] — higher, 9.48
- ATATTACATATGTGCTGTACGCAATATATTATATCT [XGTACX_site1520] — lower, 9.42
- AAGAACTTTAATAAGTGTACATTTATTGGAAACATG [XGTACX_site2995] — lower, 9.19
- TAAAATATAGAAAATTTTATTAAATATAAAAAAATA [CACACA_negctrl_site1441] — lower, 8.88
- AAAAATATATATTCAGTGCATATAACAAAAATTATA [GTGCAC_site9794] — lower, 9.28
- ATTAAATAAAAAAACACACACATATATACATATATA [CACACA_site3445] — higher, 9.89
- CATAATAATAGAAACACACACACATAGACATATATA [CACACA_site1308] — higher, 10.2
- CATATATAACCTATAGCACACATATATAATATATAT [CACACA_site8544] — higher, 9.58
- TTTTTCATATGACACACACACAAAAATAATGTGGAA [CACACA_site7692] — higher, 9.76
- AAATGAACACGAAAGGAAAAAAAAATATATATATAT [CACACA_negctrl_site267] — lower, 9.41
- TCATTTTATTATTCTACACACTTATCTATAATTATA [CACACA_site34] — higher, 9.68
- ATAATTACATAGATTGGTACACATTTTTGATTGTAT [XGTACX_site3802] — higher, 9.46
- TTAAAAATGTGTGTGCGTACATAATATTTCGAAAAA [XGTACX_site8197] — higher, 9.61
- GTACAAATGATTAATCCTTTACTTATATATATATAT [XGTACX_negctrl_site138] — higher, 9.46
- CATTTTTTTTTATAAATACACACGTACGGGTGCATA [CACACA_site1569] — lower, 9.13
- GAACATTTACGCCCCACACACCTACCAACAAAAAAA [CACACA_site7746] — higher, 9.53
- TTCTTAAAAAAAAATAAAATAAAAAAAAAAATAAAA [CACACA_negctrl_site99] — lower, 9.09
- TTCTGGCAAAATAACACACACATATATTTTATATAC [CACACA_site3242] — higher, 10.1
- CAAAAACATACCTACACACACAATATGTATTTATAA [CACACA_site5862] — higher, 9.9
- AAATGAATATTCATAGTGCAATATATAAATGAAAAT — higher, 9.46
- TTTAATTATTAGTGTGCACACAACTATGAGTTTTTA [CACACA_site8997] — higher, 9.47
- AATTACATTCAATTCTGTACTAATAGTAATTCAAAA [XGTACX_site7419] — lower, 9
- TATAAAAAATTCTTCCTTATTTTATGATATATATAT [TGCATGCA_negctrl_site57] — lower, 9.06
- ATTTGCAGTATTTCGGAACACACAAACATAAATATG [CACACA_site8726] — lower, 9.34
- TATTCCTATAAAAAAACACACACATATAAATATATA [CACACA_site8727] — higher, 9.74
- AAATATATTTCACGCACACACACCCCAAATAAATTT [CACACA_site3820] — higher, 9.92
- ATATTTCAAAATGAAAGTACATATAAAAATTATACA [XGTACX_site3787] — lower, 9.13
- AAGTATTTTTTTACATGTACATATATATATATATAT [XGTACX_site5065] — lower, 9.36
